# Source: ChEMBL document CHEMBL4888484, “Replenishing the malaria drug discovery pipeline: Screening and hit evaluation of the MMV Hit Generation Library 1 (HGL1) against asexual blood stage Plasmodium falciparum ,using a nano luciferase reporter read-out” (2022)
# Among all 150,000 compounds or so, about 540 (0.36%) showed an effect of 50% or more. This is one part of the list.
# Test system: Plasmodium falciparum
# Test: Primary screen in NF54 nanoGlo assay, in single point, at 2uM, 72h; a lower Z score goes with more inhibition
# Format: functional, Erythrocyte
# Conditions: timepoint 72 hour
SMILES,% Inhibition [%],Z score
C[C@@H](Cn1cncn1)NCc1cc(F)ccc1Br,-8,0.69
O=c1onc(-c2ncccn2)n1Cc1ccc(OCc2ccc(F)cc2)cc1,-29,3.35
C1CCC(c2nc([C@H]3CCOC3)n[nH]2)(N2CCOCC2)CC1,15,-1.94
CC(O)CN1CCN(C(=O)Cc2cccc3ccccc23)CC1C (stereo not drawn),0,0.05
COCCN1C[C@H]2CN(Cc3cccnc3)CCN2C1=O,16,-1.85
Cc1cccc(C2(C(=O)NCCc3nc(=O)o[nH]3)CCCCC2)c1,0,0.03
Cc1[nH]c2ccccc2c1C1CCN(Cc2nnc(C3CC3)o2)CC1,6,-0.81
Cc1ccc([C@@H]2c3cccn3-c3ccccc3CN2C(=O)C2CCCC2)cc1,1,-0.14
CC(C)Cc1cc(C(=O)N2C[C@H]3c4ccccc4OC[C@@]3(C(=O)O)C2)[nH]n1,-6,1.02
Cc1ccccc1OC1CCN([C@H]2CN(C(=O)Cc3ccsc3)C[C@@H]2O)CC1,-18,1.65
COc1ccccc1Cn1cc(C(=O)NCCC2=CCCCC2)c(=O)c(C(=O)NCCC(C)C)c1,5,-0.92
c1ccc(-c2cncnc2NCC23COCCN2CCOC3)cc1,-7,1.32
Cn1cc(C(=O)n2ccnc2)c2ccccc21,-8,0.97
CCC1(NC(=O)c2cnn(Cc3ccc(OC)c(OC)c3)c2)CC1,32,-3.58
CCn1ccc(C(=O)N[C@@H]2CCC[C@H]2N(C)C)n1,-19,2.9
c1nc(CN2CCOC3CCCCC32)cs1 (stereo not drawn),4,-0.53
CC(C)(C)c1noc(=O)n1Cc1nc(-c2ccc(F)cc2)no1,9,-1.88
Cc1nc(N2C[C@@H]3NCCO[C@H]3C2)sc1C,-6,0.53
COC[C@H](Cc1ccccc1)NCC(F)F,-10,1.32
COCCN(C)[C@@H](C)Cc1cccs1,-5,0.73
CN1CCC[C@@]2(CCN(C(=O)Nc3cccc(N(C)C)n3)C2)C1,-2,0.27
O=S(=O)(F)CCN(CCS(=O)(=O)F)CC1(c2ccc(F)cc2)CC1,2,-0.21
O=C(c1ccccc1)[C@H]1CCCN(Cc2nc3ncccn3n2)C1,-9,1.82
Cc1ncsc1CN1[C@@H]2CC[C@H]1CN(C)CC2,2,-0.3
